Measurements as given in paper PMC4336329 (PLoS ONE, 2015).
Out of some 310,000 compounds screened, about 2,200 (0.71%) showed an effect of 50% or more. The effect is printed as a negative number. This is one part of the list.

Molecular target: human ether-à-go-go-related gene (hERG) potassium channel (human, UniProt Q12809)
Experiment: primary screen, population patch clamp on CHO cells stably expressing hERG

Chain of human ether-à-go-go-related gene (hERG) potassium channel (Q12809 whole entry, looked up): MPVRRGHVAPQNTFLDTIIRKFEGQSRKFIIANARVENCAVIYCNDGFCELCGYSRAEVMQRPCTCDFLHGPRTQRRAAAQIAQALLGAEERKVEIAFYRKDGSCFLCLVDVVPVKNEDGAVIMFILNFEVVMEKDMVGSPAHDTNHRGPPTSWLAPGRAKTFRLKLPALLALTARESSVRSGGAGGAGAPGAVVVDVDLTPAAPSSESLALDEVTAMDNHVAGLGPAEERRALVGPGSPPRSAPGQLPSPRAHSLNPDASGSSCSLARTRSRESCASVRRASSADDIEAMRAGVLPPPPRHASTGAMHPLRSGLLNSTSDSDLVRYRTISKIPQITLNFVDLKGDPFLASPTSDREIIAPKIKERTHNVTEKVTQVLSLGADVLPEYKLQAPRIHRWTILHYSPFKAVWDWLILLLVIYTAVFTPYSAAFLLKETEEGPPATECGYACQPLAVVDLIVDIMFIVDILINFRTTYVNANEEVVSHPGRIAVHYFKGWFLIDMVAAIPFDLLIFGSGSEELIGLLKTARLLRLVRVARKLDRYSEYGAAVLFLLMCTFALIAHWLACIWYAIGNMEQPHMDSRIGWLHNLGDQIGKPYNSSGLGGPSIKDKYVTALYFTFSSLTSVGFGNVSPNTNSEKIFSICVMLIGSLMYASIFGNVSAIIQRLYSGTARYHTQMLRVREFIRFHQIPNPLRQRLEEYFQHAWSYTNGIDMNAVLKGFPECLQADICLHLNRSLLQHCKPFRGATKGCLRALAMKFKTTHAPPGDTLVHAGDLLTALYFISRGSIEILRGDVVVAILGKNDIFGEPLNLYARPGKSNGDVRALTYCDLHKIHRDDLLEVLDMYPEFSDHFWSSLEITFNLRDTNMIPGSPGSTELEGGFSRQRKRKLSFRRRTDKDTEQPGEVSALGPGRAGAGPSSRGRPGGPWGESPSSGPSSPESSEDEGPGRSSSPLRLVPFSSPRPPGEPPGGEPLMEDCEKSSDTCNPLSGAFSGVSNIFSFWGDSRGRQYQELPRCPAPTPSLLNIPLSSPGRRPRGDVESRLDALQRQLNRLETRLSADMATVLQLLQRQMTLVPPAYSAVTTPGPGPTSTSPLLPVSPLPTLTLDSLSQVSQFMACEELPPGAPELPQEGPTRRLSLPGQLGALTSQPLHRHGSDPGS

| SMILES | hERG current change (%, negative = inhibition) at 1uM |
| --- | --- |
| O=C(CSc1nnc(CNC(=O)c2cccs2)o1)NCc1ccc(F)cc1 | 6.8% |
| CCC(C)(C)NC(=O)CN(CC1CCCO1)C(=O)CCC(=O)Nc1nccs1 (stereo not shown) | 9.1% |
| COc1ccc2c(c1)/C(=C/c1cnc[nH]1)C(=O)N2 | 5.96% |
| CCOC(=O)C1=CC[C@H]2c3c(c4ccc(OC)cc4n3C)C(=O)C1N2S(=O)(=O)c1ccc(C)cc1 | 3.47% |
| O=C(N/N=C/c1cc2ccccc2nc1Cl)[C@H]1C[C@@H]1c1ccccc1 | 13.5% |
| CC1CCCC(C)N1C(=O)c1cc(-c2ccc(Cl)c(Cl)c2)on1 (stereo not shown) | 10.8% |
| Cc1ccc(S(=O)(=O)NCCC(=O)Nc2ccc(C)c(Cl)c2)cc1C | 13.7% |
| Cc1nc(N2CCN(S(=O)(=O)c3ccc(Br)cc3)CC2)c2c(C)c(C)sc2n1 | 8.04% |
| CC1=C(C)CC(C(=O)NNC(=O)c2ccccc2O)C(C(=O)O)C1 (stereo not shown) | 11.4% |
| COc1cccc(CN(Cc2ccccc2F)S(=O)(=O)c2ccc(S(=O)(=O)NCc3ccccc3)cc2)c1 | 20.2% |
| Cc1nn(CC(=O)N(C)C2CCS(=O)(=O)C2)c(C)c1[N+](=O)[O-] (stereo not shown) | 19.9% |
| Br.CC1CN2C(c3ccc(Cl)cc3)=CSC2=N1 (stereo not shown) | -9.75% |
| COc1ccc(C(=O)N2CCCC(Nc3ccc(C)c(C)c3)C2)cc1 (stereo not shown) | -0.108% |
| Cc1ccc(S(=O)(=O)Nc2ccccc2/C=N/c2nc3ccccc3n2C)cc1 | -2.55% |
| COc1ccc(-c2nc(CN3CCCCC3CCc3ccccn3)c(C)o2)cc1 (stereo not shown) | -79.4% |
| COc1cccc(Oc2cnc(N)nc2-c2ccc(OC)cc2O)c1 | 4.61% |
| CC(C(=O)Nc1cc([N+](=O)[O-])ccc1Cl)N1CCN(c2ccc(O)cc2)CC1 (stereo not shown) | 12.8% |
| O=C(COc1ccccc1)NC1CCSc2ccccc21 (stereo not shown) | 8.14% |
| Cc1c(NC(=O)c2cc3ccccc3o2)c(=O)n(-c2ccccc2)n1C | -2.97% |
| CN1CCN(C(CC(=O)Nc2cccc(O)c2)C(=O)O)CC1 (stereo not shown) | 3.73% |
| COC(=O)CCCC1=CC2=CC(=O)C(C)(OC(=O)c3cccs3)C(=O)C2=CN1C1CCCC1 (stereo not shown) | 10.3% |
| COCCn1cnnc1SCC(=O)Nc1ccccc1C(=O)Nc1ccc2c(c1)OCO2 | 16.5% |

| SMILES | hERG current change (%, negative = inhibition) at 1uM |
| --- | --- |
| COc1ccc(-c2noc(CCC(=O)Nc3cc(Cl)c(OC)cc3OC)n2)cc1 | 9.23% |
| CC(=O)N(CN1C(=O)c2ccc([N+](=O)[O-])cc2C1=O)c1cccc(C(=O)O)c1 | 11.1% |
| CC(=O)C1(C)N(O)C(C)(C)C(c2cccs2)=[N+]1[O-] (stereo not shown) | 12.7% |
| O=C1N(c2ccccc2)c2ccccc2C1(O)C(F)(F)F (stereo not shown) | 12.5% |
| COC(=O)c1sccc1-n1cccc1C(=O)C(=O)N1CC(C)OC(C)C1 (stereo not shown) | 14.3% |
| COc1cc(NS(=O)(=O)c2ccc(NC(=O)C34CC5CC(CC(C5)C3)C4)cc2)ncn1 | 0.132% |
| CCN(CC)C(=O)c1ccc(CS(=O)(=O)c2ccc(OC)cc2)o1 | 2% |
| CCCSC1C(C)=C(C)C(=O)N1Cc1ccccc1 (stereo not shown) | 14.7% |
| N#C/C(=C\N1CCOCC1)c1ccccc1 | 6.79% |
| COc1cc(Cl)c(C)cc1NC(=O)CSC | -0.457% |
| O=C(COC(=O)c1ccccc1)NCc1cccs1 | 11.3% |
| CCN(CC)Cc1cc(CC(C(N)=O)C(N)=O)ccc1OC | 5.66% |
| COc1ccc(-c2c3c(nc4sc5c(=O)[nH]c(C)nc5c24)CCC3)cc1 | 6.71% |
| COc1ccc(C(=O)Nn2c(SCC(=O)NC3CCCCC3)nc3ccccc3c2=O)cc1 | -0.2% |
| COc1ccc(C(=O)NCCc2nnc(SCC(=O)Nc3ccccc3C(C)C)n2C)cc1 | -2.6% |
| Cc1nc(NC(=O)c2ccc3c(c2)OCCO3)ccc1Br | 11.1% |
| COc1ccccc1C(=O)n1nc(-c2cccnc2)nc1N | 11.1% |
| S=C(Nc1ccc(Cl)cc1)N1CCCCC1 | 4.49% |
| O=C(NC(=O)N1CCN(c2cccc(Cl)c2)CC1)c1ccc(Cl)cc1 | 2.19% |
| CC(C)(C)C(=O)NC(NC(=O)C(C)(C)C)c1ccc([N+](=O)[O-])cc1 | 14% |
| COc1ccc(C(=O)O/N=C2\C(=O)N(C)c3ccccc32)cc1 | -11.6% |
